Test results reported in PubChem BioAssay AID463173 (ICCB-Longwood Screening Facility, Harvard Medical School, 2010).
Among all 52,000 compounds or so, about 1,700 (3.3%) were called active. No stated cut-off is given here; in the data, active means survival mostly below about 52% (no sharp cut-off); inactive means mostly above about 56%. The list shows a part of the results.

test system: Wild type; experiment: S. aureus survival, RN4220 and DeltatarO strains – OD600, teichoic acid synthesis inhibitors, primary screen (AID 463173); conditions: S. aureus RN4220 wild type/DeltatarO growth, OD600, 18 h, active compounds read low, screened at 18.75 µg/mL (by protocol)

For `Cc1ccc(-n2ccn(CC(=O)c3ccc(F)cc3)c(=O)c2=O)cc1C`, which survival is on record?
Its survival is inactive: 97%.

For `CC(=O)N1CCCc2cc(S(=O)(=O)Nc3ccc(OC(F)(F)F)cc3)ccc21`, which survival is on record?
The survival was inactive: 71%.

`COc1cccc(NC(=O)c2oc3ccccc3c2NC(=O)c2ccc(OC(C)C)cc2)c1` was tested. Which survival did it give?
Its survival is inactive: 65%.

How did the survival turn out when `CC(=O)Nc1nonc1-c1nnc(SCC(=O)Nc2c(C)cccc2C)n1-c1ccccc1` was run?
Its survival is inactive: 82%.

Which survival does the source give for `CCn1cc(C(=O)NCc2ccc(Cl)cc2)c(=O)c2cc(S(=O)(=O)N3CCc4ccccc4C3)ccc21` here?
Its survival is inactive: 89%.

For `CCOC(=O)c1ccc(N2C(=O)c3[nH]nc(-c4ccccc4)c3C2c2ccc(C(C)C)cc2)cc1` (stereo not drawn), which survival is on record?
The survival was inactive: 100%.

How did the survival turn out when `COc1ccc2c(CNCCc3ccco3)c(C(=O)O)n(Cc3ccc(F)cc3)c2c1` was run?
Its survival is inactive: 84%.

Which survival does the source give for `COc1ccc2nc(N3CCN(C(=O)CS(=O)(=O)c4ccc(C)cc4)CC3)sc2c1` here?
The survival was inactive: 131%.

For `COc1ccc(C)cc1NC1(c2ccccc2)C(=O)c2ccccc2C1=O`, which survival is on record?
Its survival is inactive: 63%.

How did the survival turn out when `COc1ccc(OC)c(N(C)S(=O)(=O)c2ccc3c(c2)NC(=O)CC(=O)N3)c1` was run?
Its survival is inactive: 75%.

How did the survival turn out when `CN(C)c1ccc(NC(=O)CC(NCc2cccnc2)C(=O)O)cc1` (stereo not drawn) was run?
The survival was inactive: 71%.

With `Cc1ccccc1NC(=O)c1sc2nc3n(c(=O)c2c1C)N=C(c1ccccc1)CS3` as the compound, how does the survival read?
The survival was inactive: 94%.

How did the survival turn out when `Cc1ccccc1NC(=O)NC1(C(=O)N2CCc3ccccc32)CCCCC1` was run?
Its survival is inactive: 98%.

Which survival does the source give for `O=c1c(-c2cc(-c3ccccc3)nc3c2COc2ccc(Cl)cc2-3)coc2ccccc12` here?
The survival was inactive: 75%.

With `Cc1ccc(NC(=O)CCCn2c(=O)c3cccn3c3cccnc32)c(C)c1` as the compound, how does the survival read?
The survival was inactive: 88%.

For `COc1cccc(CNc2sc3c(c2C(=O)Nc2ccc(OC)cc2OC)CCC3)c1`, which survival is on record?
Its survival is inactive: 73%.

How did the survival turn out when `CCC(Sc1nc2nccnc2c(=O)n1Cc1ccc(Cl)cc1)C(=O)NC1CCCCC1` (stereo not drawn) was run?
Its survival is inactive: 26%.

How did the survival turn out when `COc1ccc(-n2ccn3c(CC(C)(C)CC(=O)O)nnc3c2=O)cc1` was run?
The survival was inactive: 73%.

Which survival does the source give for `CCOc1ccc(NC(=O)c2cnn3c2NC(C)=C(C(=O)Nc2ccc(Cl)cc2)C3c2ccc(OC)c(OC)c2)cc1` (stereo not drawn) here?
Its survival is inactive: 69%.

Which survival does the source give for `Cc1ccc(-c2cnc(C3CC3)o2)cc1S(=O)(=O)Nc1ccc(F)cc1Cl` here?
Its survival is inactive: 119%.

With `CC(C)CNC(=O)C(=O)Nc1c2c(nn1-c1ccc(Cl)cc1)CSC2` as the compound, how does the survival read?
Its survival is inactive: 129%.

For `Cc1cccc(N2CCN(c3ccc4cc(S(=O)(=O)N5CCC(C)CC5)ccc4n3)CC2C)c1` (stereo not drawn), which survival is on record?
The survival was inactive: 129%.

How did the survival turn out when `CC(=O)c1ccc(NC(=O)CSc2nccn2C2CCCC2)cc1` was run?
Its survival is inactive: 74%.
